Normalised cell viability data for 14 compounds are collected here from the supplement of paper PMC8285479.

In this test the test system is NCI-H1944. Put plainly: normalised cell viability (NPI; 0 = phenylarsine oxide control, 1 = DMSO control) (fraction of DMSO control); NCI-H1944 is a non-small cell lung cancer line; higher = more viable cells (less compound toxicity). The conditions noted are these: 6 days.
Where [1] appears, read: glucocorticoid arm: hydrocortisone 2.75 uM co-treatment, compound 1 µM.
Where [2] appears, read: glucocorticoid arm: hydrocortisone 2.75 uM co-treatment, compound 5 µM.
The mark [3] stands for this setting: glucocorticoid arm: hydrocortisone 2.75 uM pre-treated 2 days and continued, compound 1 µM.
Setting [4] is: glucocorticoid arm: hydrocortisone 2.75 uM pre-treated 2 days and continued, compound 5 µM.
The mark [5] stands for this setting: glucocorticoid arm: vehicle, compound 1 µM.
Setting [6] is: glucocorticoid arm: vehicle, compound 5 µM.

Structures are written as SMILES. Where a name gives a salt, the structure may show the parent alone. ± gives the standard deviation of the averaged measurements. Over roughly 1,900 compounds, “normalised cell viability (NPI; 0 = phenylarsine oxide control, 1 = DMSO control)” has its median near 1; the lowest 2% begin near 0.039. The list shows a part of the results.
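Note: CTB read-out in 384-well plates, mean of triplicate wells, normalised per plate against 1 µM phenylarsine oxide and 0.1% DMSO, compounds added 24 h after seeding.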

With `COc1ncc(-c2ccc3nccc(-c4ccnnc4)c3c2)cc1NS(=O)(=O)c1ccc(F)cc1F`, the normalised cell viability is, setting by setting: under setting [1], 0.264 ± 0.0058; under setting [2], 0.231 ± 0.027; under setting [3], 0.365 ± 0.025; under setting [4], 0.249 ± 0.02; under setting [5], 0.0495 ± 0.0081; under setting [6], 0.0214 ± 0.0013.
As to `N=C(N)NCCCCN` [Agmatine sulfate], the normalised cell viability under setting [1] turned out to be 1.017 ± 0.0058; the normalised cell viability under setting [2] came out at 1 ± 0.025; the normalised cell viability under setting [3] worked out at 1.003 ± 0.0058; the normalised cell viability under setting [4] stood at 1 ± 0.025; the normalised cell viability under setting [5] worked out at 0.986 ± 0.012; the normalised cell viability under setting [6] is 0.997 ± 0.011.
In the case of `C=C(C)C(CC=C(C)C)CC12CC(CC=C(C)C)C(C)(C)C(CC=C(C)C)(C(=O)C(=C(O)c3ccc(O)c(O)c3)C1=O)C2=O` (centres undefined) [Garcinol], the normalised cell viability under setting [1] turned out to be 1 ± 0.012; the normalised cell viability under setting [2] was 1.01 ± 0.013; the normalised cell viability under setting [3] came to 0.992 ± 0.014; the normalised cell viability under setting [4] amounted to 0.997 ± 0.027; the normalised cell viability under setting [5] amounted to 1.007 ± 0.0052; the normalised cell viability under setting [6] was determined as 1.001 ± 0.01.
For `CCN1C(=CC(C)=O)Sc2ccc(OC)cc21`, the normalised cell viability reads like this: under setting [1], 0.982 ± 0.01; under setting [2], 0.823 ± 0.013; under setting [3], 0.994 ± 0.017; under setting [4], 0.839 ± 0.021; under setting [5], 1.01 ± 0.01; under setting [6], 0.983 ± 0.017.
On to `Cc1cnc(C(=O)NCCc2ccc(S(=O)(=O)NC(=O)NC3CCCCC3)cc2)cn1` [Glipizide], for which the normalised cell viability was found to be 1.01 ± 0.018 under setting [1]; 1.02 ± 0.01 under setting [2]; 1.01 ± 0.011 under setting [3]; 1.03 ± 0.02 under setting [4]; 1.01 ± 0.013 under setting [5]; 1.006 ± 0.0075 under setting [6].
For `CC(C)NC[C@H](O)COc1cccc2[nH]ccc12` [S(-)-Pindolol], the normalised cell viability came to 0.984 ± 0.023 under setting [1]; 0.984 ± 0.023 under setting [2]; 0.9967 ± 0.0035 under setting [3]; 0.949 ± 0.022 under setting [4]; 0.9777 ± 0.0015 under setting [5]; 0.9807 ± 0.0038 under setting [6].
In the case of `COc1ccccc1N1CCN(CCCCNC(=O)c2ccc3ccccc3c2)CC1`, the normalised cell viability under setting [1] came out at 0.9887 ± 0.0098; the normalised cell viability under setting [2] was found to be 0.984 ± 0.026; the normalised cell viability under setting [3] is 0.998 ± 0.014; the normalised cell viability under setting [4] turned out to be 0.988 ± 0.032; the normalised cell viability under setting [5] is 0.9913 ± 0.0029; the normalised cell viability under setting [6] was found to be 0.961 ± 0.033.
For `Cn1cc(-c2[nH]c3cc(NC(=O)[C@H](N)C4CCCCC4)cc4c3c2C=NNC4=O)cn1`, the normalised cell viability is, setting by setting: under setting [1], 0.76 ± 0.008; under setting [2], 0.503 ± 0.039; under setting [3], 0.9733 ± 0.0038; under setting [4], 0.848 ± 0.026; under setting [5], 0.441 ± 0.069; under setting [6], 0.208 ± 0.0058.
In the case of `CC1(C)CNc2cc(NC(=O)c3cccnc3NCc3ccncc3)ccc21` [Motesanib Diphosphate], the normalised cell viability is 1.02 ± 0.011 under setting [1]; 1 ± 0.031 under setting [2]; 1 ± 0.012 under setting [3]; 0.992 ± 0.026 under setting [4]; 1.001 ± 0.0076 under setting [5]; 1.002 ± 0.0076 under setting [6].
With `COCCOc1ccc2c(c1)ncn2-c1ccc2cccc(N3CCC(N)CC3)c2n1`, the normalised cell viability under setting [1] came out at 1.103 ± 0.011; the normalised cell viability under setting [2] was 1.04 ± 0.017; the normalised cell viability under setting [3] turned out to be 1.07 ± 0.011; the normalised cell viability under setting [4] was 1.11 ± 0.023; the normalised cell viability under setting [5] was found to be 0.9803 ± 0.0067; the normalised cell viability under setting [6] is 0.426 ± 0.044.
Regarding `COC(=O)C1=C(C)NC(C)=C(C(=O)OCCN(C)Cc2ccccc2)C1c1cccc([N+](=O)[O-])c1` (centres undefined) [Nicardipine hydrochloride], the normalised cell viability reads like this: under setting [1], 1.013 ± 0.0058; under setting [2], 0.985 ± 0.022; under setting [3], 1.006 ± 0.0075; under setting [4], 1.07 ± 0.081; under setting [5], 1.001 ± 0.0081; under setting [6], 1.02 ± 0.015.
Turning to `Cc1nc(C#Cc2ccnc(Cl)c2)c(C)n1-c1ccc(OC(F)(F)F)cc1`, the normalised cell viability under setting [1] was 0.993 ± 0.021; the normalised cell viability under setting [2] came out at 0.992 ± 0.01; the normalised cell viability under setting [3] was determined as 0.983 ± 0.015; the normalised cell viability under setting [4] was 0.9747 ± 0.004; the normalised cell viability under setting [5] is 1 ± 0.017; the normalised cell viability under setting [6] is 1 ± 0.014.
On to `Cc1ccccc1CNc1ncnc2c1ncn2[C@@H]1O[C@H](CO)[C@@H](O)[C@H]1O` [Metrifudil], for which the normalised cell viability by setting is: under setting [1], 1.01 ± 0.011; under setting [2], 1.03 ± 0.017; under setting [3], 1.02; under setting [4], 1.04 ± 0.071; under setting [5], 0.996 ± 0.004; under setting [6], 1.001 ± 0.0085.
With `OC[C@H]1O[C@@H](c2ccc(Cl)c(Cc3ccc(O[C@H]4CCOC4)cc3)c2)[C@H](O)[C@@H](O)[C@@H]1O`, the normalised cell viability runs as follows: under setting [1], 1.033 ± 0.0058; under setting [2], 1.01 ± 0.016; under setting [3], 1.027 ± 0.0058; under setting [4], 1.03 ± 0.023; under setting [5], 1.01 ± 0.01; under setting [6], 0.9943 ± 0.0074.
